# Assay results reported in PubChem BioAssay AID463173 (ICCB-Longwood Screening Facility, Harvard Medical School, 2010).
# The campaign covered roughly 52,000 compounds. About 4,300 (8.3%) were called active. Cut-off read from the data, not from the text of the source: active = survival mostly below about 52% (no sharp cut-off); inactive = mostly above about 56%. Some of the results follow.
# System: DeltatarO mutant
# Experiment: growth inhibition of S. aureus wild type versus tarO mutant, primary screen, teichoic acid synthesis inhibitors, RN4220, OD600 (AID 463173)
# Conditions: OD600, 18 h, hits give low values, screened at 18.75 µg/mL (by protocol)
row,Structure (SMILES),survival
1,Cc1ccc(S(=O)(=O)c2c(Nc3cccc(Cl)c3)sc(C(=O)c3ccc4c(c3)OCO4)c2N)cc1,inactive: 90%
2,CCOc1ccc(NC(=O)CSC2=Nc3ccccc3C3=NC(CC(=O)NCc4ccc5c(c4)OCO5)C(=O)N23)cc1 (configuration not stated),inactive: 116%
3,O=C(OCc1cc(=O)n2c3c(sc2n1)CCCC3)c1cccc(NC(=O)c2ccccc2F)c1,inactive: 115%
4,COc1ccc(-c2nc3ccccc3n2Cc2ccc(Cl)cc2)cc1,active: 6%
5,COc1cc(C)ccc1OCCSc1nnc(-c2ccc(C)cc2)o1,inactive: 55%
6,Cc1ccc(-c2ccc(=O)n(CC(=O)Nc3ccc(F)c(Cl)c3)n2)cc1C,inactive: 82%
7,COc1cccc(NC(=O)CSC2=Nc3ccccc3C3=NC(CCC(=O)NCc4ccco4)C(=O)N23)c1 (configuration not stated),inactive: 73%
8,CCN(c1ccccc1)S(C)(=O)=O,inactive: 96%
9,COc1ccc(-c2nc(CNS(=O)(=O)c3ccc(C)cc3)cs2)cc1,inactive: 90%
10,COc1ccccc1C(=O)Nc1nnc(S(=O)(=O)N2CCCCCC2)s1,active: 56%
11,CCOc1ccccc1C(=O)Nc1ccc(S(=O)(=O)N2CCCCC2c2cccnc2)cc1 (configuration not stated),inactive: 122%
12,Cc1ccc(S(=O)(=O)NCc2ccc(/C=C(/C#N)C(=O)NC3CCCCC3)o2)cc1,inactive: 71%
13,COc1ccc(S(=O)(=O)N2c3cc(F)ccc3CCC2C)cc1OC (configuration not stated),inactive: 89%
14,CCc1ccc(-c2nnn(Cc3nn[nH]n3)n2)cc1,inactive: 74%
15,Cc1ccc(-c2cc(C(=O)N(Cc3ccccc3)Cc3ccco3)no2)cc1F,inactive: 49%
16,O=C(NCCO)Nc1c[nH]c2c(Cl)cccc2c1=O,inactive: 95%
17,Cn1c(C2CC2)n[nH]c1=S,inactive: 96%
18,COc1ccc(-c2noc(CN3CCN(c4ccccc4OC)CC3)n2)cc1OC,inactive: 85%
19,Cc1ccc(C(=O)COC(=O)c2cc(-c3ccc(Cl)cc3)nc3ccccc23)cc1,inactive: 136%

row,Structure (SMILES),survival
1,CCc1cccc2c(C=C(C#N)C#N)cn(CC(=O)NC3CCCC3)c12,inactive: 77%
2,CC1CCN(C(=O)CN(c2ccccc2)S(C)(=O)=O)CC1,inactive: 99%
3,CCCCN(CC)C(=O)Nc1ccc2c(c1)N(C)C(=O)c1ccccc1S2,inactive: 89%
4,COc1ccc(C(=O)N2CCc3cc(OC)c(OC)cc3C2COc2ccccc2OC)cc1 (configuration not stated),inactive: 89%
5,COC(=O)c1c(C)sc(-c2c(-c3cccc(OC)c3)[nH]c3c2c(=O)[nH]c(=O)n3C)c1O,active: 43%
6,CC(=O)Nc1ccc(S(=O)(=O)NC2(C(F)(F)F)NC(=O)N(c3ccc(Cl)cc3)C2=O)cc1 (configuration not stated),inactive: 81%
7,COc1ccc(C)c2sc(N(Cc3cccnc3)C(=O)CCc3ccccc3)nc12,inactive: 78%
8,CC(=O)c1ccc(NC(=O)CCn2nc(C)c(S(=O)(=O)N3CCC(C)CC3)c2C)cc1,active: -5%
9,CC1CCC(NC(=O)Cn2ncc3c4ccccc4n(Cc4ccc(Cl)cc4)c3c2=O)CC1 (configuration not stated),inactive: 80%
10,COc1ccc(OC)c(-c2noc(CSc3nnc(Cc4ccccc4)n3-c3cccc(C)c3)n2)c1,inactive: 59%
11,Cc1noc2nc(C(=O)O)nc(N3CCCCC3)c12,inactive: 57%
12,C1=CC2=Nc3cccc[n+]3CN2C=C1,inactive: 104%
13,CCc1nnc(SCC(=O)Nc2cc(Cl)c(OC)cc2OC)c2cc3oc(C)cc3n12,inactive: 62%
14,COc1cccc(N2CC(NC(=O)COc3ccc4ccccc4c3)CC2=O)c1 (configuration not stated),inactive: 107%
15,Cc1ccccc1CN1C(=O)c2ccccc2Sc2ccc(C(=O)NC3CCCCC3)cc21,inactive: 71%
16,COc1ccc(NC(=O)c2nn(C)c3c2CS(=O)(=O)c2ccccc2-3)cc1Cl,active: 56%
17,COc1ccc(C2=C(Nc3ccc(Br)c(C)c3)c3ccccc3C2=O)cc1,active: 0%
18,CC(C)Nc1ccc(-c2nc(-c3ccncc3)no2)cc1[N+](=O)[O-],inactive: 79%
19,CCOC(=O)c1c(C)[nH]c(C)c1S(=O)(=O)N1CCCC(C(=O)N2CCN(c3ccccc3F)CC2)C1 (configuration not stated),inactive: 84%

row,Structure (SMILES),survival
1,COc1ccc(N(CC(=O)NC(C)c2ccccc2)S(=O)(=O)c2c(C)nn(C)c2C)cc1 (configuration not stated),inactive: 77%
2,COc1ccc(N2CCN(Cc3nc4c(c(=O)[nH]c(=O)n4C)n3Cc3ccc(C)cc3)CC2)cc1,inactive: 113%
3,CCN(CC)C(=O)CSc1nc2cccnc2n1-c1ccccc1OC,inactive: 72%
4,CC1=NN(Cc2ccccc2)C(=O)/C1=C\c1ccc(N(C)C)cc1,inactive: 66%
5,CCCCOc1ccc(C2(C)NC(=O)N(C)C2=O)cc1 (configuration not stated),inactive: 104%
6,Cc1ccc(OCc2nc(-c3ccc(C(=O)NCCc4ccc(Cl)cc4)cc3)oc2C)cc1,inactive: 84%
7,Cc1ccc(NC(=O)CN2C(=O)CCc3ccccc32)cc1C,inactive: 80%
8,CCc1ccc2[nH]c(=O)c(CN(CCCO)C(=O)Nc3ccccc3)cc2c1,inactive: 73%
9,CCCCc1ccc(NC(=O)c2cc(-c3ccc(C)c(F)c3)on2)cc1,inactive: 50%
10,Cn1c(=O)c2sccc2n2c(CCC(=O)N3CCN(c4ccc(F)cc4)CC3)nnc12,inactive: 189%
11,CCOc1ccc(C2C(C(=O)Nc3ccccc3)=C(C)Nc3nc(SCc4cccc(OC)c4)nn32)cc1 (configuration not stated),inactive: 93%
12,O=C(NCc1ccccc1)c1nc(S(=O)(=O)Cc2ccc(F)cc2)ncc1Cl,active: -6%
13,Cc1ccc(/C=C/c2onc(C)c2S(=O)(=O)N2CCC(C(=O)N3CCN(c4cccc(C)c4)C(C)C3)CC2)cc1 (configuration not stated),inactive: 67%
14,Cc1nn(C(C)C(=O)NC2CCC(C)CC2)c(=O)c2c1sc1ccccc12 (configuration not stated),inactive: 58%
15,CCc1nc(-c2cc(S(=O)(=O)N3CCN(c4ccc(OC)cc4)CC3)ccc2OC)no1,inactive: 49%
16,CCc1ccc(OCc2nc(-c3ccc(-n4cccc4)cc3)no2)cc1,inactive: 82%
17,CC(C)CCOc1ccc(C2N=C(N)Nc3nc4ccccc4n32)cc1 (configuration not stated),active: -3%
18,CCOc1ccc(-c2cn3c(n2)sc2cc(C(=O)NCCc4ccc(OC)cc4OC)ccc23)cc1,active: 40%
19,O=C(Nc1ccc(CN2CCCCC2)cc1)c1cccnc1Cl,inactive: 71%
